# In PubChem BioAssay AID720709 (National Center for Advancing Translational Sciences (NCATS), 2013):
# Out of some 360,000 compounds screened, about 520 (0.14%) were called active. Inconclusive results, whose numbers are uncertain, are shown with a selection of clear calls. Calls follow the shape of the dose curve; as a rule, active = well fitted inhibition curve with a large enough effect; inconclusive = small, poorly fitted or top-dose-only effect; inactive = no such curve, though single readings can be large or run the other way. Potencies of inconclusive entries are left out as doubtful fits.
# Molecular target: Rap guanine nucleotide exchange factor 3 (Homo sapiens) (UniProt O95398)
# Experiment: qHTS for Antagonist of cAMP-regulated guanine nucleotide exchange factor 3 (EPAC1): primary screen; also: nearly all actives have a fitted effect of over 50% in size;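 as to activity change, negative = inhibition: plate controls were vehicle for no effect and positive control for full effect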
# Conditions: EPAC1 GEF assay, Rap1b-BODIPY-GDP exchange fluorescence; activity change, negative = inhibition: at 115 µM (top of the series)
# Potency is read from the fitted curve at half-maximal effect; tags tell the direction and shape of the fitted curve.
# Sequence of UniProt O95398 (O95398 whole entry, looked up): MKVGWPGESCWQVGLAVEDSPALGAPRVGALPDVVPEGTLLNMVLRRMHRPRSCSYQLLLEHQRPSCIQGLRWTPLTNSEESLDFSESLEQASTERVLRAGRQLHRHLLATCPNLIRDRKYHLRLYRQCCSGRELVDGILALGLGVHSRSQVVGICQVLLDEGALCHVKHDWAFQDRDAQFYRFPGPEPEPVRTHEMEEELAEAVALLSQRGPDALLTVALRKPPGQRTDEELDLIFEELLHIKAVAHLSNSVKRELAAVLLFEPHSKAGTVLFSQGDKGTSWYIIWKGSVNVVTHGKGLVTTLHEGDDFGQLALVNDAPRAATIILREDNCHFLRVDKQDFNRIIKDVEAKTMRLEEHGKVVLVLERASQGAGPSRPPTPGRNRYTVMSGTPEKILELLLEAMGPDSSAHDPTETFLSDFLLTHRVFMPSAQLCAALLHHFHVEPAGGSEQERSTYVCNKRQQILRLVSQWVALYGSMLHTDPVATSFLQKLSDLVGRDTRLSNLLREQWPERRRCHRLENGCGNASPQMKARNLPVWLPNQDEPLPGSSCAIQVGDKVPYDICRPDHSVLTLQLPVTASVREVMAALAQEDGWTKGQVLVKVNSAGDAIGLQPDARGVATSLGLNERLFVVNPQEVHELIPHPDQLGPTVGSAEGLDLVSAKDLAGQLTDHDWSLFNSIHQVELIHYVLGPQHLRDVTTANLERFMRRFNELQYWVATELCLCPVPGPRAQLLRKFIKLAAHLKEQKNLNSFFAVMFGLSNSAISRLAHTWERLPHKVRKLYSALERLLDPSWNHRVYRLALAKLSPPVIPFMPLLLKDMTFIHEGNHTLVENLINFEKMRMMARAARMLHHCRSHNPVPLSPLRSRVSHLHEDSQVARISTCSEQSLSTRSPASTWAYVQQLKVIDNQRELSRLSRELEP
Structure (SMILES),Potency,"activity change, negative = inhibition"
COc1cc(CCc2ccccc2)c(C(=O)O)c(O)c1C/C=C(/C)CCC=C(C)C,active: 50.1 µM,–
Cc1cc(C)cc(NC(=O)CSc2ccc(-c3ccco3)nn2)c1,"inconclusive [inhibitor, partial curve]",–
Cc1ccc(C(O)P(=O)(OCCC(C)C)c2ccc(N(C)C)cc2)cc1 (stereo not drawn),–,inactive: 3.16%
COc1ccc(C(=O)ON=C(C)c2nccs2)cc1,"inconclusive [inhibitor, single point]",–
Cc1ccc(CN2C(=O)CSCC2(C)C(=O)Nc2c(C)cccc2C)cc1 (stereo not drawn),–,inactive: -2.07%
Cn1c(SCC(=O)c2cc(Cl)c(Cl)s2)nnc1-c1ccco1,"inconclusive [inhibitor, single point]",–
CC(C)Oc1ccc(CCC(=O)NNC(=S)Nc2ccccc2)cc1,"inconclusive [inhibitor, partial curve]",–
N#Cc1ccccc1NC(=O)COc1ccccc1C(=O)Nc1ccccc1,"inconclusive [inhibitor, partial curve]",–
Cc1ccc2nc(NNC(=O)c3ccc(S(=O)(=O)N4CCc5ccccc5C4)cc3)sc2c1,"inconclusive [inhibitor, single point]",–
Cc1ccc(NCC(=O)Nc2cccc(S(=O)(=O)N(C)C)c2)c(Cl)c1,"inconclusive [inhibitor, full curve, poor fit]",–
Cc1c(Cc2ccccc2)c(=O)oc2c(C)c(OC(C)C(=O)N[C@@H](Cc3ccccc3)C(=O)O)ccc12 (stereo partly drawn),"inconclusive [inhibitor, partial curve]",–
O=[N+]([O-])c1ccccc1/C=C/C=N/N1CCCCC1,–,inactive: -7.48%
COc1cc(OC)c(-c2cc(C(=O)O)ccc2OC)c(OC)c1,active: 89.1 µM,–
O=C1CCCN1CCCN=c1c([N+](=O)[O-])nn(-c2ccc(Cl)cc2)n1O,"inconclusive [inhibitor, partial curve, poor fit]",–
O=C1N[C@@H](Cc2ccccc2)COC(=O)[C@H](Cc2ccc(F)cc2)CC/C=C/C[C@H]1CC(=O)N(CCO)Cc1ccccc1,"inconclusive [inhibitor, full curve, poor fit]",–
O=C1c2ccccc2S(=O)(=O)N1CC1CC(c2ccccc2Cl)=NO1 (stereo not drawn),–,inactive: -23.2%
C/C(=N\NC(=O)c1cc(O)cc(O)c1)c1ccc(NC(=O)Cc2ccccc2)cc1,"inconclusive [inhibitor, partial curve]",–
Nc1n[nH]c(N)c1N=Nc1ccc2c(c1)OCO2,"inconclusive [inhibitor, single point]",–
COc1cc(OC)c(OC)cc1CCC(C)NCCC(c1ccccc1)c1ccccc1 (stereo not drawn),–,inactive: -5.19%
COc1ccc(/C=C/C(=O)c2cc(F)ccc2OC(=O)c2ccccc2C)cc1OC,"inconclusive [inhibitor, partial curve]",–
CC(=O)N1c2ccc(S(=O)(=O)N3CCC(C(=O)NCCc4ccc(Cl)cc4)CC3)cc2CC1C (stereo not drawn),"inconclusive [inhibitor, partial curve]",–
c1ccc(-c2csc3ncnc(NCc4ccccn4)c23)cc1,"inconclusive [inhibitor, single point]",–

Structure (SMILES),Potency,"activity change, negative = inhibition"
CCOC(=O)c1[nH]cc(-c2ccccc2)c1N1CCOCC1,–,inactive: -1.11%
Cc1ccc(-c2csc3nc(SCC(=O)Nc4ccc(Cl)c(C(=O)O)c4)[nH]c(=O)c23)cc1,"inconclusive [inhibitor, single point]",–
CCOC(=O)C1=C(O)/C(=C/c2ccc(-c3ccccc3C(=O)O)o2)SC1=Nc1ccc(C)cc1,"inconclusive [inhibitor, partial curve]",–
CCc1nnc(NC(=O)CSc2nc3ccc(OC)cc3[nH]2)s1,–,inactive: -19.3%
O=C(Nc1nccs1)c1cccc(N2C(=O)c3cccc4c([N+](=O)[O-])ccc(c34)C2=O)c1,"inconclusive [inhibitor, partial curve]",–
O=C(NC1(O)C(=O)c2ccccc2C1=O)c1ccc(C(F)(F)F)cc1,active: 35.5 µM,–
Cc1ccc(C(=O)Oc2cc(-c3ccccc3)no2)cc1,–,inactive: 8.25%
CCOC(=O)c1cnc2c(OC)cccc2c1N1CCN(c2ccccc2OC)CC1,"inconclusive [inhibitor, partial curve]",–
Cn1cccc1CNC(=S)Nc1ccccc1Cl,"inconclusive [inhibitor, single point]",–
Cc1ccc(-c2noc(CCCc3ccccc3)n2)cc1,"inconclusive [inhibitor, single point]",–
Cc1cccc(NC(=O)CSc2nnc(-c3ccco3)c(-c3ccco3)n2)c1,"inconclusive [inhibitor, full curve, poor fit]",–
COc1ccc(N2C(=O)CC(NNC(=O)c3ccco3)C2=O)cc1 (stereo not drawn),"inconclusive [inhibitor, single point]",–
COc1cccc(N(C(=O)c2snc(C(N)=O)c2N)C(C(=O)NCC2CCCO2)c2c[nH]c3ccccc23)c1 (stereo not drawn),"inconclusive [inhibitor, full curve, poor fit]",–
CCOC(=O)C1ON2CCCCC2C1(O)C(F)(F)F (stereo not drawn),"inconclusive [inhibitor, partial curve]",–
O=C(CSc1ccsc1[N+](=O)[O-])Nc1cc(F)ccc1F,"inconclusive [inhibitor, single point]",–
CCOCc1c(C(=O)NCC(c2ccco2)N2CCCC2)oc2ccccc12 (stereo not drawn),–,inactive: -3.82%
CCCCCCCCNc1ccccc1S(=O)(=O)NCc1ccccc1,"inconclusive [inhibitor, partial curve]",–
COc1cccc(/C=C2\C(=O)N(c3cccc(C)c3)C(=O)c3ccccc32)c1,–,inactive: 1.11%
COCC(=O)Nc1cc(C)cn(Cc2ccc(F)cc2)c1=O,–,inactive: 9.45%
O=c1c(O)c(-c2ccc(O)c(O)c2)oc2cc(O)ccc12,"inconclusive [inhibitor, partial curve]",–
Cc1cc(C)cc(NC(=O)CCc2c(C)nn(-c3ccc(N4CCCCC4)nn3)c2C)c1,"inconclusive [inhibitor, partial curve]",–
